Source: patent publication US20240076392A1, “ANTI-CD123 BINDING MOLECULES AND USES THEREOF” (IGM Biosciences, Inc., priority 2021, published 2024)

T1: recombinant human CD123 protein (CD123, Fc-Fusion (IgG1) Avi-Tag, Biotin-Labeled) (Homo sapiens, UniProt P26951)
T1 construct: purchased BPS Bioscience 100068^−2 (so in the source)
T1 sequence (P26951 19-305 limits assumed): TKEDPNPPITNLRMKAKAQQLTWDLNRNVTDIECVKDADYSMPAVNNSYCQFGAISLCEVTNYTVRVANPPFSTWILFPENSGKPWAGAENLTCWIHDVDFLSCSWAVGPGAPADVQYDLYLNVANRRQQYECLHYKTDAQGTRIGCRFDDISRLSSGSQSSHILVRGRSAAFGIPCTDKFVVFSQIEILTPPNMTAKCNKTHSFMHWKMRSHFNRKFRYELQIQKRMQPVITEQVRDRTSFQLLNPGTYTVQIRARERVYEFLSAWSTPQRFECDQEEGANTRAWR

B1: h32716-1-1 IgM: humanized anti-CD123×CD3 bispecific pentameric IgM, VH/VL SEQ ID NO: 76/79, J chain with CD3-binding scFv (SEQ ID NO: 84) (antibody)
VH: QVQLVQSGAEVKKPGSSVKVSCKASGYIFTNYGMNWVRQAPGQGLEWMGWINTYTGESTYSADFKGRVTITADESTSTAYMELSSLRSEDTAVYYCARSGGYDPMDYWGQGTLVTVSS
VL: DIVMTQSPDSLAVSLGERATINCRASESVDNYGNTFMHWYQQKPGQPPKLLIYRASNLESGVPDRFSGSGSGTDFTLTISSLQAEDVAVYYCQQSNEDPPTFGQGTRLEIK
chain: EVQLLESGGGLVQPGGSLRLSCAASGFTFDTYAMNWVRQAPGKGLEWVARIRSKYNNYATYYADSVKDRFTISRDDSKSTLYLQMESLRAEDTAVYYCVRHANFGAGYVSWFAHWGQGTLVTVSSGGGGSGGGGSGGGGSQTVVTQEPSLSVSPGGTVTLTCGSSTGAVTTSNYANWVQQTPGQAPRGLIGGTDKRAPGVPDRFSGSLLGDKAALTITGAQAEDEADYYCALWYSNHWVFGGGTKLTVLGGGGSGGGGSGGGGS[about 150 residues not printed]
modifications: IgM constant regions, J chain
B2: 32716 IgM: parental 32716 anti-CD123×CD3 bispecific pentameric IgM with modified J chain comprising CD3-binding scFv (antibody)
VH: QIQLVQSGPELKKPGETVKISCKASGYIFTNYGMNWVKQAPGKSFKWMGWINTYTGESTYSADFKGRFAFSLETSASTAYLHINDLKNEDTATYFCARSGGYDPMDYWGQGTSVTVSS
VL: DIVLTQSPASLAVSLGQRATISCRASESVDNYGNTFMHWYQQKPGQPPKLLIYRASNLESGIPARFSGSGSRTDFTLTINPVEADDVATYYCQQSNEDPPTFGAGTKLELK
J-chain: EVQLLESGGGLVQPGGSLRLSCAASGFTFDTYAMNWVRQAPGKGLEWVARIRSKYNNYATYYADSVKDRFTISRDDSKSTLYLQMESLRAEDTAVYYCVRHANFGAGYVSWFAHWGQGTLVTVSSGGGGSGGGGSGGGGSQTVVTQEPSLSVSPGGTVTLTCGSSTGAVTTSNYANWVQQTPGQAPRGLIGGTDKRAPGVPDRFSGSLLGDKAALTITGAQAEDEADYYCALWYSNHWVFGGGTKLTVLGGGGSGGGGSGGGGS[about 150 residues not printed]
B3: h32716-4-2 IgM: humanized anti-CD123×CD3 bispecific pentameric IgM, VH/VL SEQ ID NO: 80/83, J chain with CD3-binding scFv (SEQ ID NO: 84) (antibody)
VH: QVQLVQSGPELKKPGASVKVSCKASGYIFTNYGMNWVRQAPGQGLEWMGWINTYTGESTYSADFKGRFVFSLDTSVSTAYLQISSLKAEDTAVYYCARSGGYDPMDYWGQGTLVTVSS
VL: DIQMTQSPSSLSASVGDRVTITCRASESVDNYGNTFMHWYQQKPGKAPKLLIYRASNLESGVPSRFSGSGSGTDFTFTISSLQPEDIATYYCQQSNEDPPTFGQGTKVEIK
chain: EVQLLESGGGLVQPGGSLRLSCAASGFTFDTYAMNWVRQAPGKGLEWVARIRSKYNNYATYYADSVKDRFTISRDDSKSTLYLQMESLRAEDTAVYYCVRHANFGAGYVSWFAHWGQGTLVTVSSGGGGSGGGGSGGGGSQTVVTQEPSLSVSPGGTVTLTCGSSTGAVTTSNYANWVQQTPGQAPRGLIGGTDKRAPGVPDRFSGSLLGDKAALTITGAQAEDEADYYCALWYSNHWVFGGGTKLTVLGGGGSGGGGSGGGGS[about 150 residues not printed]
modifications: IgM constant regions, J chain

Tests used:
[1] = target: T1, recombinant human CD123 protein (CD123, Fc-Fusion (IgG1) Avi-Tag, Biotin-Labeled); assay: Biolayer interferometry (Octet) binding kinetics of CD123×CD3 IgM antibodies; details: CD123×CD3 IgM format; Octet BLI
Procedure: The binding affinities of parental 32716 IgG and humanized variants with recombinant human CD123 protein (CD123)-His Acrobio #ILA-H52H6) were determined by BLI on an Octet-384 (Sartorius/Fortebio, NY, USA) using Anti-penta His biosensors (Sartorius). PBST (1×PBS+1% BSA+0.05% Tween-20) buffer was used as Antibody/CD123 dilution and sensor hydration buffer. The experiment followed a five-step sequential assay at 24° C. First, biosensors were hydrated for 10 minutes. Samples and buffer were applied in 384-well plate. After initial baseline for 60 s, sensors were loaded with 7 nM hu IL-3R alpha (CD123)-His Acrobio #ILA-H52H6. The biosensors were dipped into PBST for 20 s to reach baseline, then incubated for 420 s with 2-fold serial diluted anti-CD123 antibodies starting at 10 nM for association, followed by 900 s in PBST for dissociation. Results were analyzed by ForteBio Data Analysis software 9.0 using 1:1 global fit model.
The binding affinities of CD123×CD3 IgM antibodies 32716 IgM, h32716-1-1 IgM, and h32716-4^−2 IgM with recombinant human CD123 protein (CD123, Fc-Fusion (IgG1) Avi-Tag, Biotin-Labeled, BPS Bioscience Cat.100068^−2) were determined by BLI on an Octet-384 (Sartorius/Fortebio, NY, USA) using Anti-human Fc (AFC) biosensors (Sartorius Cat #185064) as described in Example 2.

[2] = Pharmacokinetics in Balb/c mice; type: in vivo, mouse; details: 5 mg/kg intravenous bolus
Procedure: Pharmacokinetic parameters were measured for various CD123×CD3 IgM antibodies in an in vivo mouse model as follows. Balb/c mice were injected with 5 mg/kg of h32716, h32716-4^−2, or h32716-1-1 via intravenous bolus administration. Blood samples were collected at 8 time points total for each antibody, with 2 mice per time point. A sandwich ELISA assay was used to measure the plasma concentration of each antibody at each time point. Quality metrics were verified on all ELISAs, and PK parameters, including t½, clearance (CL), area under the concentration curve (AUC), and maximum concentration (Cmax) were derived using nonlinear curve fitting techniques (WinNonLin, Phoenix Software).

[3] = tested on: IFNγ, IL-6, IL-10 in MV4-11 cell TDCC media; assay: Cytokine release (MSD) in MV4-11 / PBMC TDCC assay; type: cell-based, human; details: 48 and 72 hours TDCC; at concentrations that resulted in equal levels of cell killing
Procedure: MV4-11 leukemia cells were labeled with a PKH26 red fluorescent tag using the PKH26 Red Fluorescent Cell Linker Kit (Sigma-Aldrich, Cat #MINI26-1kt) per manufacturer's instructions. Briefly, 5×10^−6 MV4-11 cells were washed with serum free RPMI-1640 medium (Gibco, REF22400-071). After centrifugation, 0.25 ml of diluent C was added to the cell pellet and was gently pipetted to resuspend. […] 0.25 ml of 2× Dye Solution was rapidly added to 0.25 ml of 2× Cell Suspension, and the sample was immediately mixed. The sample was incubated 5 min and 0.5 ml of heat inactivated FBS was added to stop the staining. The cells were centrifuged and resuspended in culture medium to make final concentration of 2.5×10^−5/ml. […]
Cytokine levels from supernatants harvested from MV4-11 cell TDCC assay at 48 and 72 hours were measured with MSD Proinflammatory Panel 1 (human) Kit (V-PLEX, Cat #K15049D-2). […] 150 uL of 2× Read Buffer T was added to each well of the plate and the plate was analyzed on an MSD instrument.
The calibration curves used to calculate analyte concentrations were established by fitting the signals from calibrators to a 4-parameter logistic model with a 1/Y^2 weighting. Analyte concentrations were determined from the ECL signals by back-fitting to the calibration curve. […]

KG1a tumor cells = assay: T cell-directed killing (TDCC) co-culture assay, KG1a; type: cell-based, human; details: T cells E:T 7:1, 72 hours
Procedure: (§1) 7×10^3 tumor cells KG1a and MV4-11 (expressing firefly luciferase) were co-cultured with T cells at 7:1 Effector to target (E:T) ratios in the presence of serial dilutions of anti-CD123×CD3 IgM antibodies in 100 μL total volume of AIM-V cell culture medium (GIBCO, #12055091) supplemented with 3% heat-inactivated fetal bovine serum (FBS, HyClone, #SH3007103HI) per well on a 96 round bottom tissue culture plate. After 72 hours of incubation at 37° C. in a 5% C02 incubator, 50 μl of supernatant was removed and frozen at −80° C. for later cytokine release analysis. 50 μl of luciferase substrate e.g., ONE-Glo EX Luciferase Assay System, Promega was added to the wells. The plates were shaken briefly to mix the reagents, and luciferase luminescent signal was measured on an EnVision plate reader (Perkin-Elmer). The data was then analyzed with GraphPad Prism to determine the EC50. Representative dose response curves for KG1a and MV411 are shown in FIG. 7A-B and max killing percentage and EC50 values are shown in Table 6.

[4] = tested on: MV411 (MV4-11) tumor cells; assay: T cell-directed killing (TDCC) co-culture assay, MV411; type: cell-based, human; details: T cells E:T 7:1, 72 hours
Procedure: as §1

kdis [1] | kon [1] | Molecule | % Extrap [2] | AUCinf [2] | CL [2] | Cmax [2] | Vss [2] | t1/2 [2] | production of cytokines (IFNγ, IL-6, IL-10) compared to CD123×CD3 IgG #1 [3] | EC50 (KG1a tumor cells) | max killing (%) (KG1a tumor cells) | max killing (%) [4]
<1e-07 s⁻¹ | 3.9e+06 M⁻¹ s⁻¹ | B1 | 1.02% | 30.8 µg·days/mL | 0.112 mL/min/kg | 76.2 µg/mL | 0.1033 L/kg | 10.5 h | much lower levels of cytokines |  |  | 
<1e-07 s⁻¹ | 4.1e+06 M⁻¹ s⁻¹ | B2 | 0.21% | 38.6 µg·days/mL | 0.08993 mL/min/kg | 100.5 µg/mL | 0.2987 L/kg | 6.9 h |  | 0.0134 nM | 99.03% | 100.2%
1.69e-05 s⁻¹ | 3.82e+06 M⁻¹ s⁻¹ | B3 | 2.55% | 29.1 µg·days/mL | 0.1192 mL/min/kg | 61.9 µg/mL | 0.1266 L/kg | 15.5 h |  | 0.0175 nM | 97.84% | 100%
